The source of these data is the supplement of paper PMC9938546.

Where a name gives a salt, the structure may show the parent alone. The list shows a part of the results. Most values come without repeats; read them as rough.
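Note: viability estimated indirectly by image-based GFP quantification with live-cell imaging of the constitutively GFP-expressing human colorectal cancer line, no immune cells added.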

The experiment concerns HCT116-GFP. As to the kind of experiment: HCT116-GFP viability (GFP intensity) relative to untreated control, monoculture; higher = less cancer cell killing. Conditions: culture: HCT116-GFP monoculture; 10 µM; 72 h.
Consider `CC(=O)OC1CN2CCC1CC2` (configuration not stated) [Aceclidine Hydrochloride], for which the HCT116-GFP viability stood at 119%.

As for `CC(CCc1ccccc1)NC(C)C(O)c1ccc(O)cc1` (configuration not stated) [Nylidrin], the HCT116-GFP viability was 95.3%.

In the case of `COc1cccc(C2(O)CCCCC2CN(C)C)c1` (configuration not stated) [Tramadol hydrochloride], the HCT116-GFP viability worked out at 112%.

`CCN[C@@H](C)Cc1cccc(C(F)(F)F)c1` [Dexfenfluramine hydrochloride]: the HCT116-GFP viability is 113%.

For the compound `CC[C@H](C)[C@H]1O[C@]2(C=C[C@@H]1C)C[C@@H]1C[C@@H](C/C=C(\C)[C@@H](O[C@H]3C[C@H](OC)[C@@H](O[C@H]4C[C@H](OC)[C@@H](O)[C@H](C)O4)[C@H](C)O3)[C@@H](C)/C=C/C=C3\CO[C@@H]4[C@H](O)C(C)=C[C@@H](C(=O)O1)[C@]34O)O2.CO[C@H]1C[C@H](O[C@H]2[C@H](C)O[C@@H](O[C@@H]3/C(C)=C/C[C@@H]4C[C@@H](C[C@]5(C=C[C@H](C)[C@@H](C(C)C)O5)O4)OC(=O)[C@@H]4C=C(C)[C@@H](O)[C@H]5OC/C(=C\C=C\[C@@H]3C)[C@]54O)C[C@@H]2OC)O[C@@H](C)[C@@H]1O` [Avermectin B1], the HCT116-GFP viability stood at 28.4%.

As to `C[C@]12CCC(=O)C=C1CC[C@@H]1[C@@H]2C(=O)C[C@]2(C)C(=O)CC[C@@H]12` [Adrenosterone], the HCT116-GFP viability stood at 105%.

As for `C[N+]1(C)CCOC(O)(c2ccc(-c3ccc(C4(O)C[N+](C)(C)CCO4)cc3)cc2)C1` (configuration not stated) [Hemicholinium bromide], the HCT116-GFP viability stood at 94.1%.

Take `CC[C@@H](C(N)=O)N1CCCC1=O` [Levetiracetam]: the HCT116-GFP viability was determined as 98.5%.

For the compound `COc1ccc(C(=O)N2CCCC2=O)cc1` [Aniracetam], the HCT116-GFP viability worked out at 92.8%.

Turning to `Cc1cc(C(C#N)c2ccc(Cl)cc2)c(Cl)cc1NC(=O)c1cc(I)cc(I)c1O` (configuration not stated) [Closantel], the HCT116-GFP viability is 58.4%.

As to `C[C@@H]1C[C@@H]([C@H](O)CC2CC(=O)NC(=O)C2)C(=O)[C@@H](C)C1` [Cycloheximide], the HCT116-GFP viability turned out to be 6.22%.

On to `CC[C@@H](CO)NC(=O)[C@@H]1C=C2c3cccc4[nH]cc(c34)C[C@H]2N(C)C1` [Methylergometrine maleate], for which the HCT116-GFP viability worked out at 91.2%.

For `O=c1[nH]oc2c1CCNC2` [THIP Hydrochloride], the HCT116-GFP viability came out at 114%.

As for `CC(N)C(O)c1ccccc1` (configuration not stated) [Phenylpropanolamine hydrochloride], the HCT116-GFP viability was 82.3%.

Turning to `O=C(CCCN1CCC2(CC1)C(=O)NCN2c1ccccc1)c1ccc(F)cc1` [Spiperone], the HCT116-GFP viability is 55.4%.

With `O=[N+]([O-])O[C@H]1CO[C@H]2[C@@H]1OC[C@H]2O[N+](=O)[O-]` [Isosorbide dinitrate], the HCT116-GFP viability turned out to be 84.1%.

As for `C=C1CC[C@@]2(O)[C@H]3Cc4ccc(O)c5c4[C@@]2(CCN3CC2CC2)[C@H]1O5` [Nalmefene hydrochloride], the HCT116-GFP viability stood at 102%.

In the case of `NCC1(CC(=O)O)CCCCC1` [Gabapentin], the HCT116-GFP viability came to 99.3%.

Consider `CC(O)(CS(=O)(=O)c1ccc(F)cc1)C(=O)Nc1ccc(C#N)c(C(F)(F)F)c1` (configuration not stated) [Bicalutamide], for which the HCT116-GFP viability turned out to be 86.5%.

For the compound `CCOC(=O)c1cncn1[C@H](C)c1ccccc1` [Etomidate], the HCT116-GFP viability came out at 95.4%.

For the compound `C[C@]12CC[C@H](O)C[C@H]1CC[C@@H]1[C@@H]2CC[C@]2(C)[C@@H](C3=CC(=O)OC3)CC[C@]12O` [Digitoxigenin], the HCT116-GFP viability was 4.06%.

As to `CC(C)c1cccc(C(C)C)c1O` [Propofol], the HCT116-GFP viability is 98.7%.

On to `Oc1ccc2c3c1O[C@H]1[C@@H](O)CC[C@@]4(O)[C@@H](C2)N(CC2CCC2)CC[C@]314` [Nalbuphine hydrochloride], for which the HCT116-GFP viability amounted to 96.5%.

Consider `CC(=O)O[C@H]1CC[C@@]2(C)C(=CC[C@@H]3[C@@H]2CC[C@]2(C)C(=O)CC[C@@H]32)C1` [Dehydroisoandosterone 3-acetate], for which the HCT116-GFP viability worked out at 97.7%.

As for `O=C(NCNC(=O)NC1C(=O)NC(=O)N1CO)NC1C(=O)NC(=O)N1CO` (configuration not stated) [Imidurea], the HCT116-GFP viability turned out to be 104%.

`CN1C[C@H](CNC(=O)OCc2ccccc2)C[C@@H]2c3cccc4c3c(cn4C)C[C@H]21` [Metergoline]: the HCT116-GFP viability stood at 71.1%.

Regarding `COc1cc2c(c(OC)c1OC)-c1ccc(OC)c(=O)cc1[C@@H](NC(C)=O)CC2` [Colchicine], the HCT116-GFP viability worked out at 9.33%.

For `CC[N+]1(C)CCCC(OC(=O)C(O)(c2ccccc2)c2ccccc2)C1` (configuration not stated) [Pipenzolate bromide], the HCT116-GFP viability stood at 115%.

Turning to `c1ccc2c(c1)OCC(C1=NCCN1)O2` (configuration not stated) [Idazoxan hydrochloride], the HCT116-GFP viability came out at 40.3%.

Regarding `CCCCCC[C@H]1C(=O)O[C@H](C)[C@H](NC(=O)c2cccc(NC=O)c2O)C(=O)O[C@@H](C)[C@@H]1OC(=O)CC(C)C` [Antimycin A], the HCT116-GFP viability is 38.6%.

On to `O=c1c2ccccc2[se]n1-c1ccccc1` [Ebselen], for which the HCT116-GFP viability stood at 111%.

For the compound `c1ccc2c(c1)Nc1ccccc1S2` [Phenothiazine], the HCT116-GFP viability was 97%.

In the case of `CC(=O)O[C@H]1C[C@@H]2CC[C@@H]3[C@H](CC[C@@]4(C)[C@H]3C[C@H]([N+]3(C)CCCCC3)[C@@H]4OC(C)=O)[C@@]2(C)C[C@@H]1[N+]1(C)CCCCC1` [Pancuronium bromide], the HCT116-GFP viability worked out at 47.9%.

For the compound `C=CCN1CC[C@]23c4c5ccc(O)c4O[C@H]2C(=O)CC[C@@]3(O)[C@H]1C5` [Naloxone hydrochloride], the HCT116-GFP viability is 99.7%.

`CCCC(C)C1(CC)C(=O)NC(=O)NC1=O` (configuration not stated) [Pentobarbital]: the HCT116-GFP viability was 90.7%.

As to `C[C@]12CCC(=O)C=C1C=C[C@@H]1[C@@H]2CC[C@@]2(C)[C@H]1CC[C@@]2(O)CCC(=O)O` [Canrenoic acid potassium salt], the HCT116-GFP viability was 98.5%.

For `C(#CCN1CCCC1)CN1CCCC1` [Tremorine dihydrochloride], the HCT116-GFP viability stood at 96.9%.

For the compound `CN1[C@@H]2C[C@@H](OC(=O)[C@H](CO)c3ccccc3)C[C@H]1[C@@H]1O[C@@H]12` [Scopolamine hydrochloride], the HCT116-GFP viability stood at 108%.

Consider `C#C[C@]1(O)CC[C@H]2[C@@H]3CCC4=CC(=O)CCC4=C3C=C[C@@]21CC` [Gestrinone], for which the HCT116-GFP viability came out at 74.8%.

For the compound `N[C@@H]1C[C@H]1c1ccccc1` [Tranylcypromine hydrochloride], the HCT116-GFP viability amounted to 94%.

As to `NCC(CC(=O)O)c1ccc(Cl)cc1` (racemic) [Baclofen (R,S)], the HCT116-GFP viability was 105%.

For `CN[C@@H]1[C@@H](O)[C@@H](O[C@@H]2[C@@H](O)[C@H](O[C@H]3O[C@H](CN)CC[C@H]3N)[C@@H](N)C[C@H]2N)OC[C@]1(C)O.CN[C@@H]1[C@@H](O)[C@@H](O[C@@H]2[C@@H](O)[C@H](O[C@H]3O[C@H]([C@@H](C)N)CC[C@H]3N)[C@@H](N)C[C@H]2N)OC[C@]1(C)O.CN[C@@H]1[C@@H](O)[C@@H](O[C@@H]2[C@@H](O)[C@H](O[C@H]3O[C@H]([C@@H](C)NC)CC[C@H]3N)[C@@H](N)C[C@H]2N)OC[C@]1(C)O` [Gentamicine sulfate], the HCT116-GFP viability amounted to 113%.
